Assay results reported in the BET-seq Pho4 binding data (Le et al. 2018).
This is one part of the list. These are noisy estimates, calculated here from bound and input reads.

Molecular target: T1, Pho4 (S. cerevisiae) (UniProt P07270)
T1 sequence: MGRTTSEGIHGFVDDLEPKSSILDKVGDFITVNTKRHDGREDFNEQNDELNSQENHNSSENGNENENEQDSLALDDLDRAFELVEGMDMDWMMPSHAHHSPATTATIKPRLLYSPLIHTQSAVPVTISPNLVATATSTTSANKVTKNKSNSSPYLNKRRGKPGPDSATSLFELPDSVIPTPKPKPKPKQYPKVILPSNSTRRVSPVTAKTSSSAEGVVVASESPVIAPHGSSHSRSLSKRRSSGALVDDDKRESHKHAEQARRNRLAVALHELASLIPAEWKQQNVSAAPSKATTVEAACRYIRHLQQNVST
Experiment: relative binding free energy (BET-seq); higher = weaker binding
Conditions: reference: library average

| Sequence | relative binding free energy |
| --- | --- |
| GTTATCACGTGCCGGT | 0.2 kcal/mol |
| TGGTGCACGTGGAACT | 0.1 kcal/mol |
| TGGCGCACGTGATAAG | 0.15 kcal/mol |
| GAACTCACGTGTGGGT | 0.28 kcal/mol |
| TTTAACACGTGTTTCT | 0 kcal/mol |
| GGAATCACGTGATTTG | 0.43 kcal/mol |
| TGGACCACGTGGGTAA | -0.18 kcal/mol |
| AGGAGCACGTGAGGGC | 0.17 kcal/mol |
| GAATTCACGTGTTAAT | 0.27 kcal/mol |
| CGGCTCACGTGTAGTG | 0.21 kcal/mol |
| GAGTTCACGTGGTCAG | 0.15 kcal/mol |
| CGGGGCACGTGAATAG | 0.16 kcal/mol |
| CAATGCACGTGTTTGT | 0.01 kcal/mol |
| TTGCGCACGTGGTGGA | -0.11 kcal/mol |
| GGCTGCACGTGGGAGA | 0.01 kcal/mol |
| AAGTACACGTGTGCGG | 0.01 kcal/mol |
| GAAGGCACGTGTAGCG | -0.1 kcal/mol |
| GTGGTCACGTGTCAAT | 0.11 kcal/mol |
| AAGATCACGTGGATGT | 0.24 kcal/mol |

| Sequence | relative binding free energy |
| --- | --- |
| TTCAGCACGTGGTGGT | -0.09 kcal/mol |
| AAGTTCACGTGGGTTG | 0.08 kcal/mol |
| GGTCTCACGTGGGAGC | 0.18 kcal/mol |
| GGGTGCACGTGAATAA | 0.33 kcal/mol |
| GGACGCACGTGTGGGC | -0.08 kcal/mol |
| TGTTCCACGTGGTTAA | 0.06 kcal/mol |
| GTGGCCACGTGGAAGA | 0.07 kcal/mol |
| GTGGACACGTGGGGGT | -0.08 kcal/mol |
| GGCATCACGTGGTGGA | 0.15 kcal/mol |
| AGTGTCACGTGTATTA | 0.19 kcal/mol |
| AGAAACACGTGTTGTT | 0 kcal/mol |
| GGGAGCACGTGGCTAG | -0.16 kcal/mol |
| TTGTGCACGTGGAGTG | 0.03 kcal/mol |
| TGTGGCACGTGTAAAA | 0.12 kcal/mol |
| TGGGGCACGTGTCAAT | -0.19 kcal/mol |
| GAGTGCACGTGGAAAA | 0.3 kcal/mol |
| TGTTACACGTGGTGCG | 0.18 kcal/mol |
| TACGTCACGTGTGTTT | 0.15 kcal/mol |
| GTAGGCACGTGGATCT | 0 kcal/mol |

| Sequence | relative binding free energy |
| --- | --- |
| TGTTACACGTGATTGT | 0.23 kcal/mol |
| TGTAGCACGTGTGGAG | 0.04 kcal/mol |
| CTTGGCACGTGGTCTG | -0.25 kcal/mol |
| TGTGTCACGTGCGACG | 0.06 kcal/mol |
| GATGACACGTGAAGGG | 0.44 kcal/mol |
| GTCTGCACGTGGTGTA | 0 kcal/mol |
| GTTCGCACGTGCGGTT | 0.03 kcal/mol |
| TTCGTCACGTGGTTCG | -0.12 kcal/mol |
| GTAGCCACGTGGTATT | 0.03 kcal/mol |
| GACGTCACGTGCGGGT | -0.03 kcal/mol |
| TAGTGCACGTGTTGTA | -0.01 kcal/mol |
| GGAATCACGTGGCTTG | 0.07 kcal/mol |
| TTCGTCACGTGTGTCG | 0.18 kcal/mol |
| TAGTGCACGTGGAGTT | 0 kcal/mol |
| TAATGCACGTGGGCGT | -0.11 kcal/mol |
| GGTTACACGTGCTTTG | 0.11 kcal/mol |
| AGGATCACGTGATGAA | 0.42 kcal/mol |
| AGGGGCACGTGAAATA | 0.06 kcal/mol |
| GGTGACACGTGAATCG | 0.3 kcal/mol |
